Source: a collection of fitness landscapes (doi:10.1126/science.1257360)
Some of the results follow.

B1: PhoQ; a variant is named by its letters at X, in order, P23837 (parent)
chain: MKKLLRLFFPLSLRVRFLLATAAVVLVLSLAYGMVALIGYSVSFDKTTFRLLRGESNLFYTLAKWENNKLHVELPENIDKQSPTMTLIYDENGQLLWAQRDVPWLMKMIQPDWLKSNGFHEIEADVNDTSLLLSGDHSIQQQLQEVREDDDDAEMTHSVAVNVYPATSRMPKLTIVVVDTIPVELKSSYMVWSWFIYVLSANLLLVIPLLWVAAWWSLRPIEALAKEVRELEEHNRELLNPATTRELTSLVRNLNRLLKSERERYDKYRTTLTDLTHSLKTPLXXLQXXLRSLRSEKMSVSDAEPVMLEQISRISQQIGYYLHRASMRGGTLLSRELHPVAPLLDNLTSALNKVYQRKGVNISLDISPEISFVGEQNDFVEVMGNVLDNACKYCLEFVEISARQTDEHLYIVVEDDGPGIPLSKREVIFDRGQRVDTLRPGQGVGLAVAREITEQYEGKIVAGESMLGGARMEVIFGRQHSAPKDE

Variants of: B1
Assay: enrichment ratio after two sorts for PhoP signalling (ratio (wild type AVST 3.29)); higher = more functional
Conditions: with PhoP (E. coli)

Variant	enrichment ratio
TAFY	2.48
YQWP	≤ 0.25
IWCL	≤ 0.25
RYPE	≤ 0.25
KIKQ	≤ 0.25
LTQM	≤ 0.25
FVKR	≤ 0.25
PNKF	≤ 0.25
RPIG	≤ 0.25
FSYG	≤ 0.25
YKPK	≤ 0.25
DPRG	≤ 0.25
YTPK	≤ 0.25
TPHM	≤ 0.25
KIPT	≤ 0.25
KLPQ	≤ 0.25
PGSE	≤ 0.25
SCMM	14.4
FPWA	≤ 0.25
MITW	≤ 0.25
TLYM	1.09
SEYL	2.14
FESH	≤ 0.25
VSIG	≤ 0.25
HVRY	≤ 0.25

Variant	enrichment ratio
TKLR	≤ 0.25
LTPI	≤ 0.25
MCYW	≤ 0.25
LYTL	0.309
VRWD	≤ 0.25
EQNF	≤ 0.25
EYLQ	≤ 0.25
WVRC	≤ 0.25
GYKF	≤ 0.25
VVPA	≤ 0.25
FRPV	≤ 0.25
TKLC	19.8
VPGR	≤ 0.25
MFLM	≤ 0.25
VMDD	≤ 0.25
YNFS	≤ 0.25
TFEQ	≤ 0.25
ARLH	2.5
GMRF	0.977
LGPT	0.425
MSKM	≤ 0.25
KLRR	≤ 0.25
HAPE	≤ 0.25
STNH	8.09
GYEH	≤ 0.25

Variant	enrichment ratio
MKCC	≤ 0.25
LRHC	≤ 0.25
PWWN	≤ 0.25
TPLK	≤ 0.25
SIQN	6.8
WIVL	≤ 0.25
AAPG	≤ 0.25
RVGI	≤ 0.25
ALYY	≤ 0.25
QGNT	≤ 0.25
NQPT	≤ 0.25
DEAV	≤ 0.25
HDGT	≤ 0.25
RNQT	≤ 0.25
YNHQ	≤ 0.25
TSLS	15.9
MCYV	2.99
GTIQ	5.98
LLPD	≤ 0.25
MTIW	≤ 0.25
WLWN	≤ 0.25
RCHY	≤ 0.25
WTFD	≤ 0.25
HTLK	≤ 0.25
TYHL	7.82

Variant	enrichment ratio
QLNK	≤ 0.25
PWTI	≤ 0.25
FYLS	≤ 0.25
PQFG	≤ 0.25
VAVR	≤ 0.25
HGIP	≤ 0.25
IYDE	≤ 0.25
AATE	≤ 0.25
FGLV	11.7
MDGI	≤ 0.25
TWWL	≤ 0.25
NFCY	≤ 0.25
IIPI	≤ 0.25
IYNW	≤ 0.25
QIMY	≤ 0.25
KQTC	≤ 0.25
MMIN	≤ 0.25
MEHE	≤ 0.25
VCNV	≤ 0.25
MRVA	≤ 0.25
MVTF	0.928
MVMD	≤ 0.25
EIVL	≤ 0.25
IRSM	≤ 0.25
KCMY	≤ 0.25

Variant	enrichment ratio
SKGT	≤ 0.25
QSIM	≤ 0.25
NLHY	≤ 0.25
KPQC	≤ 0.25
IAIG	≤ 0.25
HRDS	≤ 0.25
NNSV	0.781
WTRE	≤ 0.25
MDFV	≤ 0.25
ICVC	≤ 0.25
KAMC	≤ 0.25
VYCL	≤ 0.25
KVHC	≤ 0.25
KMDR	≤ 0.25
RLVN	≤ 0.25
IQIN	≤ 0.25
PTKH	≤ 0.25
GMYS	≤ 0.25
FSSQ	≤ 0.25
MCMK	9.59
FSMF	2.43
LPEQ	≤ 0.25
NISI	≤ 0.25
PFTC	≤ 0.25
WHWF	≤ 0.25

Variant	enrichment ratio
INNP	≤ 0.25
EFNL	≤ 0.25
KMSQ	≤ 0.25
LSHA	≤ 0.25
ITGW	≤ 0.25
IFRC	≤ 0.25
DIVI	≤ 0.25
MALM	9.02
ERDA	≤ 0.25
KLQH	≤ 0.25
RPSC	≤ 0.25
LHGS	≤ 0.25
ESDG	≤ 0.25
KMLF	≤ 0.25
QVSQ	≤ 0.25
VNYM	≤ 0.25
ESHD	≤ 0.25
SCHC	≤ 0.25
LFHV	≤ 0.25
HTWD	≤ 0.25
WFKY	≤ 0.25
WWVT	≤ 0.25
GMAY	7.02
NECI	3.8
GYEI	≤ 0.25

Variant	enrichment ratio
ANIS	4.66
RQVH	0.289
DTCG	≤ 0.25
RTYC	≤ 0.25
QEYC	≤ 0.25
QRRA	≤ 0.25
FDEL	≤ 0.25
VTWP	≤ 0.25
MKND	≤ 0.25
ELPP	≤ 0.25
QHFL	≤ 0.25
MMQV	≤ 0.25
PRNC	≤ 0.25
PPFS	≤ 0.25
EDNQ	≤ 0.25
DVTK	≤ 0.25
HAQH	≤ 0.25
LRYN	≤ 0.25
MFRS	≤ 0.25
ESQY	≤ 0.25
FARH	≤ 0.25
SEQW	≤ 0.25
WSMG	≤ 0.25
THAV	4.11
MSKF	≤ 0.25

Variant	enrichment ratio
KIEF	≤ 0.25
MGWG	0.67
INTL	≤ 0.25
FEAT	≤ 0.25
SPFF	≤ 0.25
DIGH	≤ 0.25
GDLI	7.64
PIYE	≤ 0.25
QGTY	≤ 0.25
WRHM	≤ 0.25
TDAG	2.68
QIRA	≤ 0.25
GQAC	≤ 0.25
FFGE	≤ 0.25
HWAV	≤ 0.25
QEIY	≤ 0.25
SPYC	≤ 0.25
LGNH	≤ 0.25
GMPS	≤ 0.25
VARM	≤ 0.25
